Data reported in PubChem BioAssay AID1347073 (National Center for Advancing Translational Sciences (NCATS), 2019).
Among all 45,000 compounds or so, about 200 (0.44%) were called active. Another 7% or so got no clear call; they are omitted. The call rests on the fitted dose curve; in most records, active means well fitted activation curve with a large enough effect; inconclusive means small, poorly fitted or top-dose-only effect; inactive means no such curve, though single readings can be large or run the other way. The list shows a part of the results.

Test: qHTS of TDP-43 Inhibitors: NCGC Sytravon Library Screen; further: 0% is about no effect; nearly all actives have a fitted effect of over 55% in size
Details: yeast TDP-43 toxicity rescue, BacTiter-Glo growth, 24 h; series mostly up to 46.1 µM; growth rescue (activation): at the top concentration
Procedure, shortened: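 TDP-43-expressing yeast, pregrown in raffinose, seeded at OD600 0.02 in galactose medium with compound for 24 hr at 30 deg C. Growth read by BacTiter-Glo luminescence, so rescue of toxicity appears as activation.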
For `CN(c1ccccc1)S(=O)(=O)c1cccc(C(=O)Nc2nn[nH]n2)c1`, the “growth rescue (activation)” value was inactive: 3.08%. With `COc1cc(OC)cc(C(=O)Nc2cccc(NC(=O)c3ccccc3)c2)c1` the “growth rescue (activation)” value was inactive: 22.6%. With `COc1ccc(C2CCCN2C(=S)Nc2c(C)cccc2C)cc1OC` (centres undefined) the “growth rescue (activation)” value was inactive: 15.3%. In the case of `COc1ccc(CCN(Cc2ccccn2)C(=S)Nc2ccccc2C)cc1OC`, the “growth rescue (activation)” value is reported as inactive: 16.1%. For `CC(=O)c1cccc(-n2nnnc2SCC(=O)Nc2cc(C)on2)c1`, the “growth rescue (activation)” value was inactive: 12.1%. In the case of `COc1ccc(CC(=O)OC2CCCN(C)C2)cc1` (centres undefined), the “growth rescue (activation)” value is reported as inactive: -37.5%. With `Cc1nnc(NC(=O)CS(=O)(=O)Cc2ccccc2)s1` the “growth rescue (activation)” value was inactive: -29.8%. In the case of `Cc1onc(C(=O)NCc2ccc(F)cc2)c1[N+](=O)[O-]`, the “growth rescue (activation)” value is reported as inactive: 12.7%. For `COc1ccc(-c2ccc(CCC(=O)O)n2CC2CCCO2)cc1` (centres undefined), the “growth rescue (activation)” value was inactive: 12.4%. With `CN(C(=O)COC(=O)CNC(=O)c1sc2ccccc2c1Cl)C1CCS(=O)(=O)C1` (centres undefined) the “growth rescue (activation)” value was inactive: 0.845%. With `C=CCN=C1CC(C)(C)C(C(=O)OC)C(O)=C1C(=O)CCC` (centres undefined) the “growth rescue (activation)” value was inactive: -0.916%. With `COc1ccc(C(=O)O)cc1S(=O)(=O)NC1CCN(Cc2ccccc2)CC1` the “growth rescue (activation)” value was inactive: -0.876%. In the case of `COc1ccc2cnn(-c3ccc(OC(F)(F)Cl)cc3)c(=O)c2c1OC`, the “growth rescue (activation)” value is reported as inactive: 17%. For `O=c1c([N+](=O)[O-])c(N2CCCCCC2)c2ccccc2n1-c1ccccc1`, the “growth rescue (activation)” value was inactive: 5.03%. With `CCOC(=O)N1CCC(NC(=O)C(NS(=O)(=O)c2ccc3c(c2)CCN3C(C)=O)C(C)C)CC1` (centres undefined) the “growth rescue (activation)” value was inactive: 18%. For `O=C(c1ccc([N+](=O)[O-])cc1)N(Cc1ccccc1)c1ccccn1`, the “growth rescue (activation)” value was inactive: 24.3%. For `CCN(CC(=O)NCc1ccc(Cl)cc1)C(=O)c1oc2ccccc2c1C`, the “growth rescue (activation)” value was inactive: 12%. With `O=C(CSc1nc2ccc(Nc3nc(N4CCOCC4)nc(N4CCOCC4)n3)cc2s1)NCc1ccco1` the “growth rescue (activation)” value was inactive: 15.1%. In the case of `CCOc1ccc2nc(SCC(=O)N3c4ccccc4Sc4ccccc43)sc2c1`, the “growth rescue (activation)” value is reported as inactive: 11.3%. With `CCOc1ccc(S(=O)(=O)NC(C)C(=O)NCc2ccc3c(c2)OCO3)cc1` (centres undefined) the “growth rescue (activation)” value was inactive: -10.8%. In the case of `O=C(O)Cn1cnc2c(oc3ccccc32)c1=O`, the “growth rescue (activation)” value is reported as inactive: -4.86%. With `O=[N+]([O-])c1c(-c2cn[nH]c2)n[nH]c1-c1cn[nH]c1` the “growth rescue (activation)” value was inactive: 4.64%. For `CCOc1ccc2c(c1)-c1c(ssc1=S)C(C)(C)N2C(=O)c1ccco1`, the “growth rescue (activation)” value was inactive: 8.21%. In the case of `OCCN=c1cc(-c2ccccc2)oc2ccc(Cl)cc12`, the “growth rescue (activation)” value is reported as inactive: 13.9%. For `O=C(CSc1nncn1-c1ccccc1)Nc1ccc(F)cc1F`, the “growth rescue (activation)” value was inactive: 12.5%. For `COC(=O)c1ccc(/C=N/N2C(C)CCCC2C)cc1` (centres undefined), the “growth rescue (activation)” value was inactive: 4.3%. In the case of `O=C(O)COc1ccccc1/C=N/NC(=O)c1cccc(S(=O)(=O)Nc2cccc(Cl)c2)c1`, the “growth rescue (activation)” value is reported as inactive: -1.61%. For `CCNC(=O)C1CCCN(C(=O)c2ccc3c(c2)OCO3)CC1` (centres undefined), the “growth rescue (activation)” value was inactive: 4.69%. With `CCc1ccccc1N(CC(=O)NCc1ccco1)C(=O)CCC(=O)Nc1nccs1` the “growth rescue (activation)” value was inactive: -0.021%. For `Cc1c(NS(=O)(=O)c2cc(C(=O)O)ccc2Cl)c(=O)n(-c2ccccc2)n1C`, the “growth rescue (activation)” value was inactive: -20.5%. For `CSc1ccc(C(=O)C2CCCN(C(=O)c3ccc(C)nc3)C2)cc1` (centres undefined), the “growth rescue (activation)” value was inactive: 7.96%. For `Cc1ccc2c(CC(=O)NC3CCCc4ccccc43)coc2c1` (centres undefined), the “growth rescue (activation)” value was inactive: -20.3%. With `CCOc1ccc(-c2nc[nH]c2[N+](=O)[O-])cc1` the “growth rescue (activation)” value was inactive: 5.75%. For `Clc1ccc(-c2cnc3cccnn23)cc1`, the “growth rescue (activation)” value was inactive: 12.5%. In the case of `COc1ccc(-c2csc3nc(-c4ccccc4OC)oc(=O)c23)cc1`, the “growth rescue (activation)” value is reported as inactive: 4.12%. With `COc1cc(C(N)=O)cc(Cl)c1OC` the “growth rescue (activation)” value was inactive: 2.64%. For `CCN(CC)C(=O)C(Oc1ccc(S(=O)(=O)N2CCCC2)cc1[N+](=O)[O-])c1ccccc1` (centres undefined), the “growth rescue (activation)” value was inactive: -9.77%. In the case of `COCCCNC(=O)c1ccc2nc(Cc3ccc(OC)cc3)oc2c1`, the “growth rescue (activation)” value is reported as inactive: 24.9%. In the case of `O=C(N/N=C/c1ccccn1)c1ccc(NC(=O)c2ccc(F)cc2)cc1`, the “growth rescue (activation)” value is reported as inactive: -7.58%. For `CC(C)c1ccc(CNn2cnnc2)cc1`, the “growth rescue (activation)” value was inactive: 5.53%. For `O=C(OCN1C(=O)c2ccccc2C1=O)c1cccs1`, the “growth rescue (activation)” value was inactive: 25%. With `CCCN1CCN(C(=S)Nc2ccc(S(N)(=O)=O)cc2)CC1` the “growth rescue (activation)” value was inactive: 13.5%. With `O=C(NCc1ccc2c(c1)OCO2)c1cc(-c2cc(Cl)ccc2O)n[nH]1` the “growth rescue (activation)” value was inactive: 2.76%. In the case of `COc1cc2cc(C(=O)N/N=C/c3cccc(OC)c3OC)[nH]c2cc1OC`, the “growth rescue (activation)” value is reported as inactive: -10.5%. For `Cc1ccc(-c2nc3ccc(Cl)cn3c2Nc2ccc3c(c2)OCCO3)o1`, the “growth rescue (activation)” value was inactive: -3.96%. For `CCC(Sc1nc(C)cc(C)n1)C(=O)Nc1cc(C)on1` (centres undefined), the “growth rescue (activation)” value was inactive: 14.4%. In the case of `CC(OC(=O)c1ccc(-c2ccc([N+](=O)[O-])cc2)o1)C(=O)NC(N)=O` (centres undefined), the “growth rescue (activation)” value is reported as inactive: 3.05%. In the case of `CC1CCCN(C(=O)CSc2nnc(-c3ccc(O)cc3)o2)C1` (centres undefined), the “growth rescue (activation)” value is reported as inactive: -5.14%. For `COC(=O)c1ccc(COC(=O)c2cccnc2Cl)cc1`, the “growth rescue (activation)” value was inactive: 17.8%. In the case of `COc1ccc(C(=O)CSc2nccn2C)cc1`, the “growth rescue (activation)” value is reported as inactive: -13.1%. With `CC(C)N(Cc1nc(-c2ccc(Cl)cc2)no1)Cc1nccn1C` the “growth rescue (activation)” value was inactive: 3.2%. For `CCCCC(=O)Nc1ccc(NC(=O)c2ccccc2[N+](=O)[O-])cc1OC`, the “growth rescue (activation)” value was inactive: -0.742%. In the case of `NC(=O)CN1CCCC1c1ccc2c(c1)OCCO2` (centres undefined), the “growth rescue (activation)” value is reported as inactive: 3.71%. In the case of `O=C1CCC(=O)N1Cc1c(Cl)cccc1Cl`, the “growth rescue (activation)” value is reported as inactive: 4.92%.
